Measurements from PubChem BioAssay (NCI).
Where “and” joins values, the source holds several entries; their conditions need not be identical. Identical values can stand only once.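 48-hour exposure; five concentrations; linearly interpolated endpoints. GI50 = concentration required for 50% inhibition of growth. At the TGI there is no net growth.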

test system: NCI-H322M lung; assay: DTP human tumour cell line panel, 48 h

| Compound | TGI | GI50 |
| --- | --- | --- |
| OC/C=C(\I)CCCOCOCc1ccccc1 | > 100 µM | – |
| C/C=C(/C)C(=O)O[C@H]1C[C@@H]2[C@@H](O)c3occ(C)c3C[C@]2(C)[C@@H](C)C1 | 35 µM | – |
| N#Cc1nc(C2=C(Cl)c3ccccc3OC2)[nH]c1C#N | 75.6 µM | – |
| CON(C)C(=O)N1N=C(c2cc(F)ccc2F)SC1(CCCN)c1ccccc1 (stereo unspecified) | 18 µM and 17.2 µM | < 0.01 µM |
| O=[N+]([O-])c1cccc2nc3ccccc3c(NCCC[N+]3([O-])CCOCC3)c12 | 2.11 µM | – |
| COc1cc2c3c(n(CCCCOC(=O)C(Cl)(Cl)Cl)c(=O)c2cc1OC)-c1cc2c(cc1C3=O)OCO2 | > 100 µM | > 100 µM |
| CSC1=N/C(=C\c2ccccc2)C(=O)N1CN1CCCCC1 | > 100 µM | – |
| COc1ccc(C2SCC(=O)N2NC(=O)Nc2c(C)nc3ccccn23)cc1 (stereo unspecified) | > 100 µM | 74.3 µM |
| COC(=O)C(=Cc1cc(OC)c(OC)c(OC)c1-c1cc2c(cc1C(C)=O)OCO2)C(=O)OC | 68.6 µM | – |
| CC1ON2CCCC2[C@H]1C(=O)N1C2CC3CCC2(CS1(=O)=O)C3(C)C (stereo partly specified) | > 100 µM | – |
| Cc1[nH]c2ccccc2c1C1Cc2ccccc2N1C(=O)/C(Cl)=C/c1ccccc1 (stereo unspecified) | > 100 µM | – |
| COc1cc2c3c(n(CCNCCCNCCn4c5c(c6cc(OC)c(OC)cc6c4=O)C(=O)c4ccccc4-5)c(=O)c2cc1OC)-c1ccccc1C3=O | 2.85 µM | 0.0593 µM |
| O=C1CCCC2(c3ccccc3)Nc3ccccc3N12 (stereo unspecified) | > 100 µM | – |
| COc1ccccc1N1CCN(CCCN2/C(=C(\O)c3ccccc3)C(=O)c3c(C)cc(C)nc3S2(=O)=O)CC1 | > 100 µM | – |
| FC(F)(F)c1nc(-c2ccccc2)oc1Sc1nnc(Sc2oc(-c3ccccc3)nc2C(F)(F)F)s1 | > 100 µM | – |
| Cc1nc2ccccc2c(=O)n1-c1ccccc1F | > 100 µM | – |
| O=C1NN(C2=NNC3(C(=O)N2)c2ccccc2-c2ccccc23)C(c2ccccc2)=N/C1=C/c1ccc(O)cc1 | > 150 µg/mL | 84.4 µg/mL |
| COC(=O)C12C3C4C1C1C2C3C41NC(=O)c1csc([C@@H](C[C@H](C(C)C)N(C)C(=O)[C@@H](NC(=O)[C@H]2CCCCN2C)C2CC2)OC(C)=O)n1 (stereo partly specified) | > 33.3 µM | 0.177 µM |
| c1cc2c(ncc3cscc32)s1 | > 100 µM | – |
| CCOC(=O)CCn1[nH]c(=O)c(Cl)c(Cl)c1=O | > 100 µM | – |
| C=CC1(C)CCC2=C(CCC3C(C)(C(=O)OC)CCCC23C)C1=O (stereo unspecified) | 36.5 µM | – |
| Cc1ccc(C(=O)Nc2ccc(CN3CCN(C)CC3)c(C(F)(F)F)c2)cc1C#Cc1cnc(N)c2ccccc12 | 1.4 µM | 0.521 µM |
| O=C(Nc1ccc(Cl)cc1Cl)C(=O)C(C(=O)c1ccncc1)C1OC(=O)c2ccccc21 (stereo unspecified) | > 100 µM | – |

| Compound | TGI | GI50 |
| --- | --- | --- |
| N#C/C(=C\c1cc2ccccc2c2ccccc12)c1ccccc1 | > 100 µM | – |
| COC(=O)C1=C(C(=O)OC)c2cc(OC)ccc2C(C(=S)N(C)C)S1 (stereo unspecified) | > 100 µM | – |
| CC(=O)OC1(C)C=CC(=O)C=C1 | > 100 µM | – |
| CCOC(=O)C(Cc1cn(S(=O)(=O)c2ccccc2)c2ccccc12)(NC(C)=O)C(=O)OCC | > 100 µM | – |
| COC(=O)[C@H](Cc1c[nH]c2ccccc12)NC(=O)[C@@H](OC)[C@@H]1Cc2cc3cc(OC4CC(OC5CC(O)C(O)C(C)O5)C(O)C(C)O4)c(C)c(O)c3c(O)c2C(=O)[C@H]1OC1CC(OC2CC(OC3CC(C)(O)C(O)C(C)O3)C(O)C(C)O2)C(O)C(C)O1 (stereo partly specified) | 0.115 µM | 0.00726 µM |
| CC(=O)N[C@@H](Cc1ccc(O)cn1)C(=O)NCc1cccc(Cl)c1 | > 100 µM | – |
| COc1ccc(CCN2CCN(CCc3ccc(OC)cc3)CC2)cc1 | > 100 µM | – |
| CCc1c(C)c(C#N)c(=S)n(C2OC(COC(C)=O)C(OC(C)=O)C(OC(C)=O)C2OC(C)=O)c1C (stereo unspecified) | > 100 µM | – |
| COc1ccc2c3c(coc13)C(CCC(=O)O)CC2 (stereo unspecified) | > 100 µM | – |
| NNc1nncc2n[nH]nc12 | > 100 µM | – |
| CC1=CC(=O)N(n2c(Cc3ccccc3)n[nH]c2=O)C1=O | > 100 µM | – |
| c1cc[c]([Pb]([c]2ccccc2)[c]2ccccc2)cc1 | > 100 µM | 25.1 µM |
| Cc1ccccc1N=Nc1ccc(N/N=C2/CCCNC2=O)c(C)c1 | > 100 µM | – |
| CCCS(=O)(=O)/C(=C(\c1ccc(Br)cc1)S(=O)(=O)CCC)c1ccc(Br)cc1 | > 10 µM | – |
| CCC(=O)c1c(C(F)(F)F)n([O-])c2ccc(C)cc2[n+]1=O | 4.09 µM | 0.0246 µM |
| Cc1cc(C)n(C2OC(CO)C(O)C(O)C2O)c(=S)c1C#N (stereo unspecified) | > 100 µM | – |
| CC(C)CCCC(=O)CCCCCCC(=O)CCN(O)C(=O)C(N)CO (stereo unspecified) | 32.7 µM | – |
| C/C=C(\C)CC/C=C/CO[Si](C)(C)C(C)(C)C | > 100 µM | – |
| CCO/N=C(/N)c1ncn(Cc2ccccc2)c1NCC(OCC)OCC | > 100 µM | – |
| COc1cc(OC)cc(-c2nc3cc(F)ccc3s2)c1 | > 100 µM | – |
| Fc1ccc(-c2nn3ncccc3c2-c2ccnc(Nc3ccc4c(c3)OCCO4)n2)cc1 | > 25 µM | 2.9 µM |
| COC(=O)C(COC(C)=O)NC(=O)/C=C/c1ccc(O)c(OC(C)=O)c1 (stereo unspecified) | > 100 µM | – |
